Molecular target: T1, Purified ankyrin (AnkR), biotinylated (UniProt P16157 1-1881, limits assumed, biotinylated (sites not given))
T1 construct: also called purified biotinylated ankyrin
Assay: biotinylated ankyrin (0.001-1.0 µM) incubated with GST-MAB; bound fraction quantified from autofluorograms; non-linear regression, bi-molecular model
Experimental: (top) Purified Ank_R was biotinylated, and incubated with GST-MAB (peptide IIa) or GST. Lane A, purified biotinylated ankyrin (30 ng); lanes 1 to 8 respectively, 0.001, 0.005, 0.01, 0.05, 0.1, 0.3, 0.5, and 1.0 μM ankyrin. Shown are the autofluorograms of the bound fractions for either GST-MAB or GST alone. (bottom) The ankyrin in the GST-MAB (●) or GST (□) bound fractions as a function of the ankyrin concentration.
Purified ankyrin (Ank_R) was biotinylated, and its binding to GST-MAB or GST measured (FIG. 5). […] Thus, while other regions of α-Na,K-ATPase such as the ALLK motif (SEQ ID NO: 6) identified in CD3 may contribute to its interaction with ankyrin (29,30), the 25 residues identified here are sufficient, and bind specifically to ankyrin but not to other proteins present in the whole kidney lysates (FIG. 1). GST alone was devoid of significant binding activity (FIG. 5).

T1 sequence (P16157 whole entry): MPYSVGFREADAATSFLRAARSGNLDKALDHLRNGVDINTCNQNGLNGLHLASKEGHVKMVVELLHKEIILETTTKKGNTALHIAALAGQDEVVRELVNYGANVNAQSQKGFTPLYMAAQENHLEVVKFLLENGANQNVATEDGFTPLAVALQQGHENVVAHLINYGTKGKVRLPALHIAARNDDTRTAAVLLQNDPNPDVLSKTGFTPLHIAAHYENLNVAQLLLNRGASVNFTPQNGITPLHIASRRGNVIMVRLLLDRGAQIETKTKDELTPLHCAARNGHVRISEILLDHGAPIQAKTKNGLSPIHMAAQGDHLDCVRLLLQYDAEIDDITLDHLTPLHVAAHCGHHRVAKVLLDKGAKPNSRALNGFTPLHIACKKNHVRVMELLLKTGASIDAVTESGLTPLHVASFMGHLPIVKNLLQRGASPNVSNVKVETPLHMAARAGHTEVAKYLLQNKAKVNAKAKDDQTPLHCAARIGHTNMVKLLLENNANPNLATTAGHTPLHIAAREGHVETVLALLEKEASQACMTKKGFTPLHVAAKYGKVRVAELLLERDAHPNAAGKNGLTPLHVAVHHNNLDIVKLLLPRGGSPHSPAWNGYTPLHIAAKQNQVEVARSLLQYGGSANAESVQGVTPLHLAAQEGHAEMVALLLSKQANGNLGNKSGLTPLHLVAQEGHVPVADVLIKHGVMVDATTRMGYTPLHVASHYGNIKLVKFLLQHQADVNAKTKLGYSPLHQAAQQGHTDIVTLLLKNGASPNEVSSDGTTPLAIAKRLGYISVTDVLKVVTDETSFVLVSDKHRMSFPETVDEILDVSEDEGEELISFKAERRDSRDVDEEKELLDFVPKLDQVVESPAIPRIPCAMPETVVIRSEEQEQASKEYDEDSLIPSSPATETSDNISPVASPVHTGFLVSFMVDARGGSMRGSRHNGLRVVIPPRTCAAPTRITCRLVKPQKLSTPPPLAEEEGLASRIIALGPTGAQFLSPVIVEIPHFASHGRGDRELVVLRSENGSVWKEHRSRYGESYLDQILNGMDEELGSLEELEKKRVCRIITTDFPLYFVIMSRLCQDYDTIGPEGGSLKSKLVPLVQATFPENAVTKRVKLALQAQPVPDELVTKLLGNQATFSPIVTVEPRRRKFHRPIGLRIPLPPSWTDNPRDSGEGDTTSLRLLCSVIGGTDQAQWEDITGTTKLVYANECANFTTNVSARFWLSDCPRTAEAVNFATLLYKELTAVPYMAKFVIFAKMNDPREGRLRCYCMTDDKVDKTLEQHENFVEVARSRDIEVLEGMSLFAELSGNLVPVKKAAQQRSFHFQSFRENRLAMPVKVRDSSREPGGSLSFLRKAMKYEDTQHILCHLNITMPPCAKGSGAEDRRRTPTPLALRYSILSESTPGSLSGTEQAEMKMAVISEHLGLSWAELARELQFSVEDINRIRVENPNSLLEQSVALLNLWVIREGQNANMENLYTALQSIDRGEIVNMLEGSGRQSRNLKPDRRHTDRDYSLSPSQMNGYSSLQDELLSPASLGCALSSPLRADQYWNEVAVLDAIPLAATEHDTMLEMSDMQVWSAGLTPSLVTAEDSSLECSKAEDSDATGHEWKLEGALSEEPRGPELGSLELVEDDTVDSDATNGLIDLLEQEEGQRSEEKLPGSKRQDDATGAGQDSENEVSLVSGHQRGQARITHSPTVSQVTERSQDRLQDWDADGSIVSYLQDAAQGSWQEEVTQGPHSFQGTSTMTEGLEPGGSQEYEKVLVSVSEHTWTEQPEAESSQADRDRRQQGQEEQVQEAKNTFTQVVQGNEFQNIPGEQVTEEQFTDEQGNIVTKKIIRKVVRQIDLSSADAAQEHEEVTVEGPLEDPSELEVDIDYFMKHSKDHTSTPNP

B1: GST-MAB fusion peptide (glutathione-S-transferase fused to the minimal ankyrin binding domain, […] of rat α-Na,K-ATPase) (other)
chain: not shown
notes: also called peptide IIa; peptide IIA
Kd: 118 nM

— US6485935 (YALE UNIVERSITY, dated 2002)
